# Measurements as given in PMC4336329 (PLoS ONE, 2015).
# About 2,200 (0.71%) of roughly 310,000 compounds showed an effect of 50% or more. The effect is printed as a negative number. This is one part of the list.
# Biological target: human ether-à-go-go-related gene (hERG) potassium channel (human, UniProt Q12809)
# Assay: primary screen, population patch clamp on CHO cells stably expressing hERG
# Sequence of human ether-à-go-go-related gene (hERG) potassium channel (Q12809 whole entry, looked up): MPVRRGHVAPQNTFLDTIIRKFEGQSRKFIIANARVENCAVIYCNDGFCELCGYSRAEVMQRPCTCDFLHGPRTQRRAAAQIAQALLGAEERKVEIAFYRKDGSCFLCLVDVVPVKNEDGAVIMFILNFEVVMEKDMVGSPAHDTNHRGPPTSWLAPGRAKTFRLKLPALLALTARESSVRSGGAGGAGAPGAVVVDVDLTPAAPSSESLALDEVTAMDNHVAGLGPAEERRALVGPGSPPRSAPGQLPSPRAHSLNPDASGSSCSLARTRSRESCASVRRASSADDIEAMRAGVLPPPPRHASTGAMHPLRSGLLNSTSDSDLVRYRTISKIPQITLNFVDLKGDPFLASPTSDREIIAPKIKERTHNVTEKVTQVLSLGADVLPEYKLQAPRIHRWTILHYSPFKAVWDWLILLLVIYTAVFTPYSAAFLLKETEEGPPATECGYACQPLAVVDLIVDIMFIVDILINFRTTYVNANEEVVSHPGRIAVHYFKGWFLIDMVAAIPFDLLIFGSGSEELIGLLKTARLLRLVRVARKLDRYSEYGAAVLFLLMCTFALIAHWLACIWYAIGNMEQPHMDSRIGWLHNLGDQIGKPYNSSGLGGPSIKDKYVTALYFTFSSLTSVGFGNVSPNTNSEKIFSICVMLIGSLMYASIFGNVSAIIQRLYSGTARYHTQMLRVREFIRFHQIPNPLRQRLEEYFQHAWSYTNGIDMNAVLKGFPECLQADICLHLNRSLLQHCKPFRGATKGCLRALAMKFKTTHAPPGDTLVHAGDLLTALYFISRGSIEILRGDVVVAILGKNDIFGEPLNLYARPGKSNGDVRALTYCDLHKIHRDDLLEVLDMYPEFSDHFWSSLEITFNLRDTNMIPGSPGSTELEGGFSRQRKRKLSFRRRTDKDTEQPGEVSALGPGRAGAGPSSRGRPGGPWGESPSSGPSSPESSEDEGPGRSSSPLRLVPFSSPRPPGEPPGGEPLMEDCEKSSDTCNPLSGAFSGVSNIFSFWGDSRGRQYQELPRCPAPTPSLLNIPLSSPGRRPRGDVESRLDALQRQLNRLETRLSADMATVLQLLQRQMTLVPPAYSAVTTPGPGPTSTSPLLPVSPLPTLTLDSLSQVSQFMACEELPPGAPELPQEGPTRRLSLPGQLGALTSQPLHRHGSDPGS
row,SMILES,"hERG current change (%, negative = inhibition) at 1uM"
1,COc1ccc(CC(=O)Nc2ccc(C(=O)NC(C)(C)C)cc2)cc1,4.61%
2,CC12CC(NC(=O)N1c1cccc(C(=O)NCc3ccccc3)c1)c1ccccc1O2 (stereo not shown),-8.94%
3,CCOc1cc(-c2c(C)c(C)nc(N)c2C#N)ccc1O,2.07%
4,Cc1cccc2c(SCC(=O)NCC3CCCO3)nc(-c3ccc(F)cc3)nc12 (stereo not shown),1.29%
5,CC(C)(C)NC(=O)NC(=O)Cn1ccsc1=N.Cl,10.1%
6,Cc1ccccc1C(=O)NC1CCN(CC(=O)Nc2nccs2)CC1,4.9%
7,CCC1CCCCN1C(=O)COc1ccc(F)cc1 (stereo not shown),3.89%
8,COC(=O)C1=C(CS(=O)(=O)c2ccccc2)NC(=O)NC1c1ccc(O)cc1 (stereo not shown),13.9%
9,Cc1ccc2nc(/C(C#N)=C\c3ccc(Oc4ccc(C(F)(F)F)cc4[N+](=O)[O-])cc3)[nH]c2c1,20.8%
10,COc1cccc(C2CC(c3cccs3)=NN2C(=S)Nc2ccccc2)c1OC (stereo not shown),1.02%
11,CN(C)S(=O)(=O)c1cccc(NC(=O)Cn2cc(C(F)(F)F)cc(Cl)c2=O)c1,8.51%
12,COC(=O)CNC(=O)c1ccccc1,17.5%
13,CN(CC(=O)Nc1ccc(Cl)c(S(=O)(=O)N2CCOCC2)c1)C(=O)c1ccc(C#N)cc1,11%
14,O=C(O)C1=NN(c2c(F)c(F)cc(F)c2F)C(=O)CC1,8.16%
15,CC1CCN(C(=O)/C(=C\c2ccccc2F)NC(=O)c2ccccc2)CC1,-18.4%
16,COc1cc(-c2nc3c[n+](CC(=O)c4ccccc4)ccc3n2C)cc(OC)c1OC.[Br-],4.9%
17,CC(C)N(Cc1nnc(-c2ccccc2Br)o1)C(=O)c1cc(Cl)nc2ccccc12,12%
18,Cn1nc(C(=O)NC2CCCCC2)c2c1-c1ccccc1S(=O)(=O)C2,6.54%
19,COc1cc(C(=O)N=c2sc3c(C)ccc(OC)c3n2C)cc(OC)c1OC,11.8%
20,Cc1ccc(-c2nnn(CC(=O)N(c3ccccc3F)C(CC(C)C)C(=O)NCC3CCCO3)n2)cc1 (stereo not shown),-3.04%
21,NC(=O)C1CCN(c2nc(-c3ccc(Br)cc3)cs2)CC1,14.8%
22,O=Cc1ccc(-n2cccn2)cc1,6.94%
23,CN(C)S(=O)(=O)c1cc(NC(=O)COC(=O)C2CSC3(C)CCC(=O)N23)ccc1Cl (stereo not shown),10.1%
24,Cc1noc(C)c1COc1ccc2ccc(=O)oc2c1,7.57%
25,O=C(CSc1nnc(CNC(=O)c2c(F)cccc2F)o1)NCc1ccccc1Cl,14.8%
26,COc1cccc(C(=O)Nc2cccc(NC(=O)c3ccccc3Cl)c2)c1,-21.3%
27,O=C(O)C1C2CCC(O2)C1C(=O)Nc1ccc(F)cc1 (stereo not shown),8.52%
28,Cc1csc(NC(=O)c2ccc(-c3ccc(Cl)cc3Cl)o2)n1,5.09%

row,SMILES,"hERG current change (%, negative = inhibition) at 1uM"
1,CC(=O)c1cccc(NC(=O)C(C)OC(=O)CCN=C2NS(=O)(=O)c3ccccc32)c1 (stereo not shown),-2.67%
2,Cc1ccc(NC(=O)COC(=O)c2ccc3c(c2)OCO3)c(C)c1,11.1%
3,CCOc1ccccc1N(CC(=O)NCc1ccncc1)S(=O)(=O)c1ccccc1,11.5%
4,CCCn1cc(CN2CCC(n3nccc3NC(=O)CCOc3ccccc3)CC2)c(C)n1,11.1%
5,Cc1cc(C)c(S(=O)(=O)Nc2ncn[nH]2)c(C)c1,-0.561%
6,CCC(Sc1nc(C)cc(=O)[nH]1)C(=O)Nc1nc(-c2ccccc2)cs1 (stereo not shown),10.7%
7,CCC(=O)Nc1ccc(C(=O)Nc2c[nH]c(=O)[nH]c2=O)cc1,18.8%
8,COC(=O)c1sccc1NC(=O)c1sccc1C,7.85%
9,CCOC(=O)c1ccc(N/N=C/c2cc(Br)cc([N+](=O)[O-])c2O)cc1,15.5%
10,CCc1cc2c(=O)c(-c3ccc4c(c3)OCO4)coc2c(CN(C)C)c1O,15.1%
11,COC(=O)c1ccccc1C(=O)N1CCCC(CNC(=O)c2ccc(F)cc2)C1 (stereo not shown),16.6%
12,O=C(CCN1C(=O)c2ccccc2S1(=O)=O)Nc1ccc(F)c([N+](=O)[O-])c1,-2.56%
13,CC(C#N)Sc1ncnc2sc(-c3ccccc3)cc12 (stereo not shown),12%
14,O=C(O)c1cccc(N2C(=O)/C(=C/c3ccc([N+](=O)[O-])cc3)C=C2c2ccccc2)c1,4.68%
15,COc1ccccc1C(c1nnnn1Cc1ccccc1)N1CCC(C(N)=O)CC1.Cl (stereo not shown),9.67%
16,CN(Cc1ccccc1F)C(=O)c1ccccc1Sc1ccccc1C#N,14.1%
17,Cc1cccc(CN2CCN(C(=O)c3cccc4ccccc34)CC2)c1,10.7%
18,Cc1c(C)n(CCc2ccccc2)c2ncnc(NCCCO)c12,-11.7%
19,NS(=O)(=O)c1cc(C(=O)N=Nc2c(O)[nH]c3ccccc23)ccc1Cl,10%
20,Cc1cccc(NC(=S)N2CCC(c3nc4ccccc4o3)CC2)c1C,0.97%
21,CCN(CC)CC#CC(C)OCOCC#CCOC (stereo not shown),5.78%
22,Cc1cccc(-n2ccnc2SCC(=O)O)c1C,10.2%
23,COc1cc2[nH]c(=O)n(CCCC(=O)NCCc3ccccc3)c(=O)c2cc1OC,5.07%
24,O=C(COc1ccccc1)NCc1ccccc1,11.7%
25,O=C(CN1C(=O)NC2(CCCC2)C1=O)N1CCN(c2ccccc2Cl)CC1,14.2%
26,CC1=NN(c2nc(-c3ccc(C#N)cc3)cs2)C(=O)C1,5.48%
27,COCCNC(=O)C(c1ccc(F)cc1)N(CCOC)C(=O)CCC(=O)Nc1ccccn1 (stereo not shown),13.8%
